The values below come from article PMC12820563.

Some of the results follow. The list includes weakly bound sequences.

This test deals with T1, MBP-FoxP3dN (UniProt Q99JB6).
T1 sequence: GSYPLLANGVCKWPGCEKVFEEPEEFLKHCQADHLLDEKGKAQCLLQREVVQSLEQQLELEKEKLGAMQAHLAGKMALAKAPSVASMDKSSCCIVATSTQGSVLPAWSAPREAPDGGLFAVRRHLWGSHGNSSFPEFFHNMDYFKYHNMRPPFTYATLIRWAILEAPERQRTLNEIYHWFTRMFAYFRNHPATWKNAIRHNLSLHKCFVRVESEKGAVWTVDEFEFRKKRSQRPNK
Kind of test: PD-seq (MBP pull-down with sequencing). The conditions noted are these: 20 mM Tris-HCl pH 7.5, 100 mM NaCl, 1.5 mM MgCl2, 0.4 uM protein, 0.1 uM dsDNA library, 30 min, room temperature, amylose pull-down; high values mean tight binding; double strand, one strand shown.
Take “GATGATTGTTCTCCCAGCTGATGAATTGATTTCTTCGAGTAAACAAATTTTCCTAATCTTTCTGTTCAAGCGCCATCTAC”: the binding signal (RPM ratio (pull-down/input)) came out at 0.807.

As for “GATGATTGTTCTCCCAGCTGATGAATTGGGGCCGTCGAGTAAACAAATTTTCCTAATCTTTCTGTTCAAGCGCCATCTAC”, the binding signal (RPM ratio (pull-down/input)) came out at 0.369.

On to “GATGATTGTTCTCCCAGCTGATGAATTTGTTATCTCGAGTAAACAAATTTTCCTAATCTTTCTGTTCAAGCGCCATCTAC”, for which the binding signal (RPM ratio (pull-down/input)) was 7.03.

With “GATGATTGTTCTCCCAGCTGATGAATTGTCGATATCGAGTAAACAAATTTTCCTAATCTTTCTGTTCAAGCGCCATCTAC”, the binding signal (RPM ratio (pull-down/input)) worked out at 0.619.

Take “GATGATTGTTCTCCCAGCTGATGAATTCCAGAAGTCGAGTAAACAAATTTTCCTAATCTTTCTGTTCAAGCGCCATCTAC”: the binding signal (RPM ratio (pull-down/input)) amounted to 0.172.

“GATGATTGTTCTCCCAGCTGATGAATTGTGGCTTTCGAGTAAACAAATTTTCCTAATCTTTCTGTTCAAGCGCCATCTAC”: the binding signal (RPM ratio (pull-down/input)) amounted to 1.94.

“GATGATTGTTCTCCCAGCTGATGAATTTCGCGATTCGAGTAAACAAATTTTCCTAATCTTTCTGTTCAAGCGCCATCTAC”: the binding signal (RPM ratio (pull-down/input)) amounted to 1.23.

With “GATGATTGTTCTCCCAGCTGATGAATTGTTATTGTCGAGTAAACAAATTTTCCTAATCTTTCTGTTCAAGCGCCATCTAC”, the binding signal (RPM ratio (pull-down/input)) worked out at 6.63.

For “GATGATTGTTCTCCCAGCTGATGAATTGGTGTCCTCGAGTAAACAAATTTTCCTAATCTTTCTGTTCAAGCGCCATCTAC”, the binding signal (RPM ratio (pull-down/input)) was 1.3.

As to “GATGATTGTTCTCCCAGCTGATGAATTTAATGTCTCGAGTAAACAAATTTTCCTAATCTTTCTGTTCAAGCGCCATCTAC”, the binding signal (RPM ratio (pull-down/input)) was 3.07.

In the case of “GATGATTGTTCTCCCAGCTGATGAATTATGCTAGTCGAGTAAACAAATTTTCCTAATCTTTCTGTTCAAGCGCCATCTAC”, the binding signal (RPM ratio (pull-down/input)) was 2.02.

Consider “GATGATTGTTCTCCCAGCTGATGAATTAGAGTATTCGAGTAAACAAATTTTCCTAATCTTTCTGTTCAAGCGCCATCTAC”, for which the binding signal (RPM ratio (pull-down/input)) was 1.12.

With “GATGATTGTTCTCCCAGCTGATGAATTTGTCTTTTCGAGTAAACAAATTTTCCTAATCTTTCTGTTCAAGCGCCATCTAC”, the binding signal (RPM ratio (pull-down/input)) turned out to be 3.26.

On to “GATGATTGTTCTCCCAGCTGATGAATTCGACCTTTCGAGTAAACAAATTTTCCTAATCTTTCTGTTCAAGCGCCATCTAC”, for which the binding signal (RPM ratio (pull-down/input)) amounted to 0.397.

As for “GATGATTGTTCTCCCAGCTGATGAATTCGTTCCATCGAGTAAACAAATTTTCCTAATCTTTCTGTTCAAGCGCCATCTAC”, the binding signal (RPM ratio (pull-down/input)) came to 0.366.

“GATGATTGTTCTCCCAGCTGATGAATTAGATACATCGAGTAAACAAATTTTCCTAATCTTTCTGTTCAAGCGCCATCTAC”: the binding signal (RPM ratio (pull-down/input)) was determined as 0.882.

In the case of “GATGATTGTTCTCCCAGCTGATGAATTCCTAAAATCGAGTAAACAAATTTTCCTAATCTTTCTGTTCAAGCGCCATCTAC”, the binding signal (RPM ratio (pull-down/input)) was 0.198.

For the sequence “GATGATTGTTCTCCCAGCTGATGAATTCCATACTTCGAGTAAACAAATTTTCCTAATCTTTCTGTTCAAGCGCCATCTAC”, the binding signal (RPM ratio (pull-down/input)) was determined as 0.374.

On to “GATGATTGTTCTCCCAGCTGATGAATTGTCCTAGTCGAGTAAACAAATTTTCCTAATCTTTCTGTTCAAGCGCCATCTAC”, for which the binding signal (RPM ratio (pull-down/input)) stood at 0.264.

Turning to “GATGATTGTTCTCCCAGCTGATGAATTAACGGGGTCGAGTAAACAAATTTTCCTAATCTTTCTGTTCAAGCGCCATCTAC”, the binding signal (RPM ratio (pull-down/input)) was 0.225.

For “GATGATTGTTCTCCCAGCTGATGAATTTCAGCTATCGAGTAAACAAATTTTCCTAATCTTTCTGTTCAAGCGCCATCTAC”, the binding signal (RPM ratio (pull-down/input)) is 0.567.

As to “GATGATTGTTCTCCCAGCTGATGAATTTAGGTTATCGAGTAAACAAATTTTCCTAATCTTTCTGTTCAAGCGCCATCTAC”, the binding signal (RPM ratio (pull-down/input)) amounted to 1.01.

On to “GATGATTGTTCTCCCAGCTGATGAATTTATCTTATCGAGTAAACAAATTTTCCTAATCTTTCTGTTCAAGCGCCATCTAC”, for which the binding signal (RPM ratio (pull-down/input)) amounted to 0.747.

“GATGATTGTTCTCCCAGCTGATGAATTGGTCATGTCGAGTAAACAAATTTTCCTAATCTTTCTGTTCAAGCGCCATCTAC”: the binding signal (RPM ratio (pull-down/input)) stood at 0.716.

As to “GATGATTGTTCTCCCAGCTGATGAATTTTGAGAGTCGAGTAAACAAATTTTCCTAATCTTTCTGTTCAAGCGCCATCTAC”, the binding signal (RPM ratio (pull-down/input)) was found to be 0.465.

Consider “GATGATTGTTCTCCCAGCTGATGAATTGTTGACGTCGAGTAAACAAATTTTCCTAATCTTTCTGTTCAAGCGCCATCTAC”, for which the binding signal (RPM ratio (pull-down/input)) amounted to 4.46.

In the case of “GATGATTGTTCTCCCAGCTGATGAATTTAAACCATCGAGTAAACAAATTTTCCTAATCTTTCTGTTCAAGCGCCATCTAC”, the binding signal (RPM ratio (pull-down/input)) stood at 0.379.

Consider “GATGATTGTTCTCCCAGCTGATGAATTAATGTTATCGAGTAAACAAATTTTCCTAATCTTTCTGTTCAAGCGCCATCTAC”, for which the binding signal (RPM ratio (pull-down/input)) stood at 1.82.

For the sequence “GATGATTGTTCTCCCAGCTGATGAATTGGTGGCATCGAGTAAACAAATTTTCCTAATCTTTCTGTTCAAGCGCCATCTAC”, the binding signal (RPM ratio (pull-down/input)) was 1.28.

Take “GATGATTGTTCTCCCAGCTGATGAATTAATCCTCTCGAGTAAACAAATTTTCCTAATCTTTCTGTTCAAGCGCCATCTAC”: the binding signal (RPM ratio (pull-down/input)) was 0.285.

With “GATGATTGTTCTCCCAGCTGATGAATTACAAAAATCGAGTAAACAAATTTTCCTAATCTTTCTGTTCAAGCGCCATCTAC”, the binding signal (RPM ratio (pull-down/input)) worked out at 0.298.

Take “GATGATTGTTCTCCCAGCTGATGAATTGTATGCGTCGAGTAAACAAATTTTCCTAATCTTTCTGTTCAAGCGCCATCTAC”: the binding signal (RPM ratio (pull-down/input)) turned out to be 2.49.
